Measured values: the RNAGym collection of RNA variant scans (doi:10.1073/pnas.2313332121)
Variants at the floor of the assay are shown more often than the library holds them.

B1: TPR 5TU (parent)
chain: GGAUCUUCUCGAUCUAACAAAAAAGACAAAUCUGCCACAAAGCUUGAGAGCAUCUUCGGAUGCAGAGGCGGCAGCCUUCGGUGGCGCGAUAGCGCCAACGUUCUCAACUAUGACACGCAAAACGCGUGCUCCGUUGAAUGGAGUUUAUCAUG

Variants of: B1
Test: polymerase ribozyme fitness, log enrichment relative to wild type (log ratio); higher = more active; in vitro selection for triplet polymerase activity
How it was run: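 Mutant libraries for each subunit of a heterodimeric triplet polymerase ribozyme were made by PCR and then transcribed. Each library underwent one round of in vitro selection in triplicate: annealing with a biotinylated primer, the partner subunit and triplets, frozen incubation at −7 °C, gel excision of extended constructs, streptavidin-bead capture and RT-PCR. Input and output libraries were Illumina-sequenced, and only genotypes with ≥10 input reads and ≥1 read per output were kept. Fitness is the logarithm, base 2, of genotype enrichment over wild-type enrichment, computed from inverse-variance-weighted replicate averages.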

Variant	polymerase ribozyme fitness (log ratio)
GGAUCUUCUCGAUCUAACAAAAAAGACAAAUCUGCCACAAAGCUUGAGAGCAUCUUCGGACGCAGAGGCGGCAGCCUUCGGUGGGGCGAUAGCGCCAACGUUCUCAACUAUGACACGCAAAACGCGUGCUCCGUUAAAUGGGGUUUAUCAUG [U61C C85G G136A A142G]	≤ -4.2
GGAUCUUCUCGAUCUAACAAAAAAGACAAAUCUGCCACAAAGCUUGAGAGCAUCUUCGGAAGCAGAGGCGGCAGCCUUCGGUGGCGCGAUAGCGCCAAGGUUCUCAACUAUGACACGCAAAACGCGUGCUCCGUUGAAUGGAGUUUAUCAUG [U61A C99G]	-3.23
GGAUCUUCUCGAUCUAACAAAAAAGACAAAUCUGCCACAAAGCUUGAGAGCAUCUUCGGAGGCGGAGGCGGCAGCCUUCGUUGGAGCGAUAGCGCCAACGUCCUCAACUAUGACACGCAAAACGCGUGCUCAGUUGAAUGGAGUUUAUCAUG [U61G A64G G81U C85A U102C C132A]	≤ -4.2
GGAUCUUCUCGAUCUAACAAAAAAGACAAAUCUGCCACAAAGCUUGAGAGCAUCUUCGGAAGCAGAGGCGGCAGCCUUCGGUGGCGCGAUACCGCCAACGUUCUCAACUAUGACACGCAAAACGCGUGCUCCGUUGAAUGGAGUUUAUCAUG [U61A G92C]	-3.57
GGAUCUUCUCGAUCUAACAAAAAAGACAAAUCUGCCACAAAGCUUGAGAGCAUCUUCGGACGCAGAGGCGGCAGCCUUCGGUGGCGCUAUAGCGCCAACGUUCUCAACUAUGACACGCAAAACGCGUGCUCCGUUGAAUGGAGUUUAUCAUG [U61C G88U]	≤ -4.2
GGAUCUUCUCGAUCUAACAAAAAAGACAAAUCUGCCACAAAGCUUGAGAGCAUCUUCGGAAGCAGAGGCGGCAGCCUUCGGUGGCGCGAUAGAGCCAACGUUCUCAACUAUGACACGCAAAACGCGUGCUCCGUUGAAUGGAGUUUAUCAUG [U61A C93A]	≤ -4.2
GGAUCUUCUCGAUCUAACAAAAAAGACAAAUCUGCCACAAAGCUUGAGAGCAUCUUCGGAAGCAGAGGCGGCAGCCUUCGGUGGCGCGAUAGGGCCAACGUUCUCAACUAUGACACGCAAAACGCGUGCUCCGUUGAAUGGAGUUUAUCAUG [U61A C93G]	≤ -4.2
GGAUCUUCUCGAUCUAACAAAAAAGACAAAUCUGCCACAAAGCUUGAGAGCAUCUUCGGAAGCAGAGGCGGCAGCCUGCGGUGUCGCGGUAGCGCCAACGUUCUCAACUAUGACACGCAAAACGCGUGCUCCGUUGAAUGGAGUUUAUCAUG [U61A U78G G84U A89G]	≤ -4.2
GGAUCUUCUCGAUCUAACAAAAAAGACAAAUCUGCCACAAAGCUUGAGAGCAUCUUCGGACGCAGAGGCGGCAGCCUUCGGUGGCGCGAUAGCGCCAACGUUCUCAACUAUGACACGCAAAACGCGUGCUCUGUUGAAUGGAGUUUAUCAUG [U61C C132U]	≤ -4.2
GGAUCUUCUCGAUCUAACAAAAAAGACAAAUCUGCCACAAAGCUUGAGAGCAUCUUCGGACGCAGAGGCGGCAGCAUUCGGUGGCGCGAUAGCGUCAACGCUCUCAAGUAUUACACGCAAAACGCGUGCUCCGUUGAAUGGAGUUUAUCAUG [U61C C76A C95U U101C C108G G112U]	≤ -4.2
GGAUCUUCUCGAUCUAACAAAAAAGACAAAUCUGCCACAAAGCUUGAGAGCAUCUUCGGAAGCAGAGGCGGCAGCCUUCGGUGGCGCGAUAGCGCCAAGGUUCACAACUAUGACACGCAAAACGCGUGCUCCGUUGAAGGGAGUUUAUCAUG [U61A C99G U104A U139G]	≤ -4.2
GGAUCUUCUCGAUCUAACAAAAAAGACAAAUCUGCCACAAAGCUUGAGAGCAUCUUCGGAAGCAGAGGCGGCAGCCUUCGGUGGGGCGAUAACGCCAACGUUCUCAUCUAUGACACGCAAAACGCGUGCUCCGUUGAAUGGAGUUUAUCAUG [U61A C85G G92A A107U]	≤ -4.2
GGAUCUUCUCGAUCUAACAAAAAAGACAAAUCUGCCACAAAGCUUGAGAGCAUCUUCGGACGCAGAGGCGGCAGCCUUCGGUGGCGCGAUGGCGCCAACGUUCUCAACUAUGACACGCAAAACGCGUGCUCCGUUGAAUGGAGUUUAUCAUG [U61C A91G]	≤ -4.2
GGAUCUUCUCGAUCUAACAAAAAAGACAAAUCUGCCACAAAGCUUGAGAGCAUCUUCGGAAGCAGAGGCGACAGCCUUCGGUGGCGCGAUGUCGCCAACGUUCUCAACUAUGACACGCAAAACGCGUGCUCCGUUGAAUGCAGUUUAUCAUG [U61A G71A A91G G92U G141C]	≤ -4.2
GGAUCUUCUCGAUCUAACAAAAAAGACAAAUCUGCCACAAAGCUUGAGAGCAUCUUCGGAAGCAGAGGCGGCAGCCUUCGGUGGUGCGAUAGGGCCAACGUUCUCAACUAUGACACGCAAAACGCGUGCUCCUUUGAAUGGAAUUUAUCAUG [U61A C85U C93G G133U G143A]	≤ -4.2
GGAUCUUCUCGAUCUAACAAAAAAGACAAAUCUGCCACAAAGCUUGAGAGCAUCUUCGGAAGCAGAGGCGGCAGCCUUCGGUGGAGCGAUAGCGCCGGCGUUCUCAACUAUGACACGCAAAACGCGUGCUCCGUUGAAUGCAGUUUAUCAUG [U61A C85A A97G A98G G141C]	≤ -4.2
GGAUCUUCUCGAUCUAACAAAAAAGACAAAUCUGCCACAAAGCUUGAGAGCAUCUUCGGAAGCAGAGGCGGCAGCCCUCGGUGGCGCGAUAGCGCCAACGUUCUCAACUAUGACACGCAAAACGCGUGCUCCGUUGAAUGGAGUUUAUCAUG [U61A U77C]	≤ -4.2
GGAUCUUCUCGAUCUAACAAAAAAGACAAAUCUGCCACAAAGCUUGAGAGCAUCUUCGGAAGCAGAGGCGGCAGCCAUCGGUGGCGCGAUAGCGCCAACGUUCUCAACUAUGACACGCAAAACGCGUGCUCCGUUGAAUGGAGUUUAUCAUG [U61A U77A]	≤ -4.2
GGAUCUUCUCGAUCUAACAAAAAAGACAAAUCUGCCACAAAGCUUGAGAGCAUCUUCGGAAGCAGAGGCGGCAGCCUUCGGUGGCGCGAUAGCGACAACGUUCUCAACUGUGACACGCAAAACGCGUGCUCCGUUGAAUGGAGUUUAUCAUG [U61A C95A A110G]	≤ -4.2

Variant	polymerase ribozyme fitness (log ratio)
GGAUCUUCUCGAUCUAACAAAAAAGACAAAUCUGCCACAAAGCUUGAGAGCAUCUUCGGAAGCAGAGGCGGCAGCCUUCGGUGGCGCGAUAGCGCCAACGUUCUCAACUAUGACACACAAAACGCGUGCUCCGUUGAAUGGAGUUUAUCAUG [U61A G117A]	-0.98
GGAUCUUCUCGAUCUAACAAAAAAGACAAAUCUGCCACAAAGCUUGAGAGCAUCUUCGGAAGCAGAGGCGGCAGCCUUCGGUAGGGCGAUAGCGCCAACGUUCUCAGCUAUGACACGCAAAACGCGUGCUCCGUUGAAUGGAGUUUAUCAUG [U61A G83A C85G A107G]	≤ -4.2
GGAUCUUCUCGAUCUAACAAAAAAGACAAAUCUGCCACAAAGCUUGAGAGCAUCUUCGGAAGCAGAGGCGGCAGCCUUCGGUGGCGCCAUAGCGCCUACGUUCUCAACUAUGACACGCAAAACGCGUGCUCCGUUGAAUGGAGUUUAUCAUG [U61A G88C A97U]	≤ -4.2
GGAUCUUCUCGAUCUAACAAAAAAGACAAAUCUGCCACAAAGCUUGAGAGCAUCUUCGGAAGCAGAGGCGGCAGCCUUCGGUGGCGCGAUAGCGACAACGUUCUCAACUAUGACACGCAAAACGCGUGCUCCGUUGAAUGGAGUUUAUCAUG [U61A C95A]	-1.41
GGAUCUUCUCGAUCUAACAAAAAAGACAAAUCUGCCACAAAGCUUGAGAGCAUCUUCGGACGCAGAACCGGCAGCCUUUGGUGGCGCGAUAGCGCCAGCGUUCUCAACUAUGACACGCAAAACGCGUGCUCCGUUGAAUGGAGUUUAUCAUG [U61C G67A G68C C79U A98G]	≤ -4.2
GGAUCUUCUCGAUCUAACAAAAAAGACAAAUCUGCCACAAAGCUUGAGAGCAUCUUCGGAAGCAGAGGCGGCAGCCUUCGGUGGGGCGAUAGCGCCAACGUUCUGAACUAUGACACGCAAAACGCGUGCUCCGUUGAAUGGAGUUUAUCAUG [U61A C85G C105G]	≤ -4.2
GGAUCUUCUCGAUCUAACAAAAAAGACAAAUCUGCCACAAAGCUUGAGAGCAUCUUCGGAAGCAGAGGCGGCAGCCUUCGGUGGCGCGAUAGCGCCAACGUCCUCAACUAUGACACGCAAAACGCGUGCUCCGUUGAGUGGAGUUUAUCAUG [U61A U102C A138G]	≤ -4.2
GGAUCUUCUCGAUCUAACAAAAAAGACAAAUCUGCCACAAAGCUUGAGAGCAUCUUCGGAAGCAGAGGCGGCACCCUUCGGUGGCCCGAUAGCGCCAACGUUCUCAACUAUGACACGCAAAACGCGUGCUCCGUUGAAUGGAGUUUAUCAUG [U61A G74C G86C]	≤ -4.2
GGAUCUUCUCGAUCUAACAAAAAAGACAAAUCUGCCACAAAGCUUGAGAGCAUCUUCGGAAGCAUAGGCGGCAGCCUUCGGUGGUGCGAUAGCGCCAACGUUCUCAACUAUGACACGCAAAACGCGUGCUCCGUUGAAUGGAGUUUAUCAUG [U61A G65U C85U]	≤ -4.2
GGAUCUUCUCGAUCUAACAAAAAAGACAAAUCUGCCACAAAGCUUGAGAGCAUCUUCGGAAGCAGACGCGGCAGCCGUCGGUGGCGCGAUAGCGCCAACGUUCUCAACUAUGACACUCAAAACGCGUGCUCCGUUGAAUGGAGUUUAUCAUG [U61A G67C U77G G117U]	≤ -4.2
GGAUCUUCUCGAUCUAACAAAAAAGACAAAUCUGCCACAAAGCUUGAGAGCAUCUUCGGAAGCAGAGGCGGCAGCCUUCGGUGGCGCGAUAGCGCCAACGUUCUCAAAUAUGACACGCAAAACGCGUGCUCCGUUGAAUGGAGUUUAUCAUG [U61A C108A]	≤ -4.2
GGAUCUUCUCGAUCUAACAAAAAAGACAAAUCUGCCACAAAGCUUGAGAGCAUCUUCGGAAGCAGAGGCGGCAGCCUUCGGUGGCGCGAUAGCGCCAACGUUCUCAAGUAUGACACGCAAAACGCGUGCUCCGUUGAAUGGAGUUUAUCAUG [U61A C108G]	≤ -4.2
GGAUCUUCUCGAUCUAACAAAAAAGACAAAUCUGCCACAAAGCUUGAGAGCAUCUUCGGACGCAGAGGCAGCAGCCUUCGGUGGCGCGAUAGCGCCAACGUUCUCAACUAUGACACGCAAAACGCGUGCUCCGUUGAAUGGAGUUUAUCAUG [U61C G70A]	-4.13
GGAUCUUCUCGAUCUAACAAAAAAGACAAAUCUGCCACAAAGCUUGAGAGCAUCUUCGGAGGCCGAGGCGGCAGCCUUCGUUGGCGCGAUAGCGAUAACGUCCUCAACUAUGACACGCAAAACGCGUGCUCCGUUGAAUGGAGUUUAUCAUG [U61G A64C G81U C95A C96U U102C]	≤ -4.2
GGAUCUUCUCGAUCUAACAAAAAAGACAAAUCUGCCACAAAGCUUGAGAGCAUCUUCGGAAGCAGAGGCGGCAGCCUUCGGUGGAGCGAUAGCGCAAACGUUCUAAACUAUGACACGCAAAACGCGUGCUCCGUUGAAUGGAGUUUAUCAAG [U61A C85A C96A C105A U151A]	≤ -4.2
GGAUCUUCUCGAUCUAACAAAAAAGACAAAUCUGCCACAAAGCUUGAGAGCAUCUUCGGAAGCAGAGGCGGCAGCCUUCGGUGGCGCGAUAGCGCCAACGUUCUCAACUAUGACACGCAAAACGCGUACUCCGUUGAAUGGAGUUUAUCCUG [U61A G128A A150C]	≤ -4.2
GGAUCUUCUCGAUCUAACAAAAAAGACAAAUCUGCCACAAAGCUUGAGAGCAUCUUCGGACGCAGAGGCGUCAGCCUUCGGUUGCGAGAUAGCGCCAACGUUCUCAUCUAUGACACGCAAAACGCGUGCUCCGUUGAAUGGAGUUUAUCAUG [U61C G71U G83U C87A A107U]	≤ -4.2
GGAUCUUCUCGAUCUAACAAAAAAGACAAAUCUGCCACAAAGCUUGAGAGCAUCUUCGGAAGCAGACGCGGCAGCCUUCGGUGGCGCGAUAGCGCCAAAGUUCUCAUCUAUGACACGCAAAACGCGUGCUCCGUUGAAUGGAGUUUAUCAUG [U61A G67C C99A A107U]	≤ -4.2
GGAUCUUCUCGAUCUAACAAAAAAGACAAAUCUGCCACAAAGCUUGAGAGCAUCUUCGGAGGCAGAGGCGGCAGCCUUCGGUGGCGCGGUAUCGCCAACGUUCUCAACUAUGACAUGCAAAACGCGUGCUCCGUCGAAUGGAGUUUAUCAUG [U61G A89G G92U C116U U135C]	≤ -4.2
